# Assay results as given in the supplement of paper PMC4604168 (melanoma cell lines).
# The list shows a part of the results. Single values are uncertain, as repeats are few or missing.
# What was measured:
# Assay in all cases: cell count relative to DMSO control; melanoma cells; higher = more viable cells
# Conditions in all cases: library dose: standard library concentration; 72 h
# G361 = test system: G361
# IPC-298 = test system: IPC-298
# IST-MEL1 = test system: IST-MEL1
# LB2518-MEL = test system: LB2518-MEL
# LOXIMVI = test system: LOXIMVI
# MEL-HO = test system: MEL-HO
# MZ2-MEL = test system: MZ2-MEL
# MeWo = test system: MeWo
# RPMI7951 = test system: RPMI7951
# RVH-421 = test system: RVH-421
# SkMel28 = test system: SkMel28
# SkMel2 = test system: SkMel2
# SkMel30 = test system: SkMel30
# SkMel5 = test system: SkMel5
# UACC257 = test system: UACC257
# UACC62 = test system: UACC62
# WM115 = test system: WM115
# WM1716 = test system: WM1716
# WM1745 = test system: WM1745
# WM3526 = test system: WM3526
# 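Note: cells treated in 1,536-well plates, then fixed and DAPI-stained, with nuclei counted from automated high-throughput microscope images.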
SMILES,cell count (G361) [%],cell count (IPC-298) [%],cell count (IST-MEL1) [%],cell count (LB2518-MEL) [%],cell count (LOXIMVI) [%],cell count (MEL-HO) [%],cell count (MZ2-MEL) [%],cell count (MeWo) [%],cell count (RPMI7951) [%],cell count (RVH-421) [%],cell count (SkMel28) [%],cell count (SkMel2) [%],cell count (SkMel30) [%],cell count (SkMel5) [%],cell count (UACC257) [%],cell count (UACC62) [%],cell count (WM115) [%],cell count (WM1716) [%],cell count (WM1745) [%],cell count (WM3526) [%]
"O=C(O)[C@@H]1[O][Sb](=[O])([O][Sb]2(=[O])[O][C@H]([C@H](O)CO)[C@H](O)[C@H](C(=O)O)[O]2)[O][C@H]([C@H](O)CO)[C@@H]1O (stereo partly specified) [stibogluconate] + COc1ccc(Cl)c(Nc2nc3ccccc3nc2NS(=O)(=O)c2cccc(NC(=O)C(C)(C)N)c2)c1 [XL147] (first compound 10 µM, partner dose 4 µM)",103,80.8,57,101,133,61.5,83.5,90.7,99.4,79,90.6,105,108,92.5,76.1,127,91.4,87.3,92.3,91.1
"O=C(O)[C@@H]1[O][Sb](=[O])([O][Sb]2(=[O])[O][C@H]([C@H](O)CO)[C@H](O)[C@H](C(=O)O)[O]2)[O][C@H]([C@H](O)CO)[C@@H]1O (stereo partly specified) [stibogluconate] + CCc1ccc(CCOc2ccc(CC3SC(=O)NC3=O)cc2)nc1 [pioglitazone] (first compound 10 µM, partner dose 10 µM)",109,97.9,102,102,77.7,89.3,97.2,109,122,102,96.6,109,114,122,116,115,95.9,92.6,–,111
"O=C(O)c1ccc2c(c1)nc(Nc1cccc(Cl)c1)c1ccncc12 + COc1cc2ncnc(Nc3ccc(Oc4ccccc4)cc3)c2cc1OC [SrcI1] (first compound 2 µM, partner dose 10 µM)",27.2,53.9,82.5,138,41.2,62,49.4,52.7,26.9,90.8,47.2,88.2,71.1,57.9,87.8,39.2,70.2,77.8,–,52.9
"Cc1cc(N2CCOCC2)cc2[nH]c(-c3c(NC[C@@H](O)c4cccc(Cl)c4)cc[nH]c3=O)nc12 + CCc1ccc(CCOc2ccc(CC3SC(=O)NC3=O)cc2)nc1 [pioglitazone] (first compound 1 µM, partner dose 10 µM)",85.8,106,101,75.5,79.1,97.3,107,74.5,83.1,96.9,68.9,74,87,76,84.4,110,99.4,94.7,44.8,94
"O=C(Nc1ccccc1)c1cc([N+](=O)[O-])ccc1Cl + Oc1cc(-c2nc(-c3ccccc3)[nH]c2-c2ccncc2)ccc1Cl [L779450] (first compound 10 µM, partner dose 1 µM)",57.5,89,82.4,66.6,66.3,84.4,76.7,78.9,65.8,65.4,43.4,27.7,73.5,68.1,72.6,42.2,41.7,69.3,44.1,53.1
"O=C(Nc1cc(C(F)(F)F)cc(C(F)(F)F)c1)c1cc(Cl)ccc1O + COc1ccc(-c2ccc3c(N4CCOCC4)nc(N4C[C@@H](C)O[C@@H](C)C4)nc3n2)cc1CO [KU0063794] (first compound 0.08 µM, partner dose 0.1 µM)",76.4,76,87.3,86.5,110,77.9,79.9,75.9,78.3,105,85.7,82.9,88.6,89.5,84.7,76,77.7,93.9,–,76.4
"O=C(O)[C@@H]1[O][Sb](=[O])([O][Sb]2(=[O])[O][C@H]([C@H](O)CO)[C@H](O)[C@H](C(=O)O)[O]2)[O][C@H]([C@H](O)CO)[C@@H]1O (stereo partly specified) [stibogluconate] + Oc1nc(-c2ccc(C(F)(F)F)cc2)nc2c1CSCC2 [XAV939] (first compound 10 µM, partner dose 10 µM)",93,85.4,99.6,109,97.6,78.4,86,109,77.9,101,50.9,113,94.7,53,78.1,74.9,84.2,40.3,–,93.8
"O=C(O)[C@@H]1[O][Sb](=[O])([O][Sb]2(=[O])[O][C@H]([C@H](O)CO)[C@H](O)[C@H](C(=O)O)[O]2)[O][C@H]([C@H](O)CO)[C@@H]1O (stereo partly specified) [stibogluconate] + C=CCn1c(=O)c2cnc(Nc3ccc(N4CCN(C)CC4)cc3)nc2n1-c1cccc(C(C)(C)O)n1 [MK1775] (first compound 10 µM, partner dose 0.1 µM)",68.2,70.2,107,51.7,40.8,80.5,102,69.1,53.6,99.9,34.4,75.4,89.6,41.9,82.4,61.7,67.5,84.9,36.4,65.6
"O=C(Nc1cc(C(F)(F)F)cc(C(F)(F)F)c1)c1cc(Cl)ccc1O + CNC(=O)c1cc(Oc2ccc(NC(=O)Nc3ccc(Cl)c(C(F)(F)F)c3)cc2)ccn1 [sorafenib] (first compound 0.08 µM, partner dose 2 µM)",74.4,81.4,68,91.7,113,76.7,86.7,70.8,87.1,102,108,81.1,97.4,67.8,81.3,110,82.6,91,93.1,69.4
"O=C(O)[C@@H]1[O][Sb](=[O])([O][Sb]2(=[O])[O][C@H]([C@H](O)CO)[C@H](O)[C@H](C(=O)O)[O]2)[O][C@H]([C@H](O)CO)[C@@H]1O (stereo partly specified) [stibogluconate] + Cn1cc(/C=C2\C(=O)Nc3cccnc32)c2ccccc21 [GW441756] (first compound 10 µM, partner dose 2 µM)",69.9,82.8,93.3,104,95.6,87.1,76.6,90.9,73.2,115,79.2,92.3,94.4,73.1,85.8,89.2,83.7,97.7,–,91.8
"O=C(Nc1cc(C(F)(F)F)cc(C(F)(F)F)c1)c1cc(Cl)ccc1O + Nc1cccc2c1CN(C1CCC(=O)NC1=O)C2=O [lenalidomide] (first compound 0.08 µM, partner dose 5 µM)",95.6,100,103,93.9,117,106,106,117,90.7,74.7,101,114,118,121,103,86.5,132,119,126,118
"O=C(Nc1cc(C(F)(F)F)cc(C(F)(F)F)c1)c1cc(Cl)ccc1O + COc1cc(N2CCC(N3CCN(C)CC3)CC2)ccc1Nc1ncc(Cl)c(Nc2ccccc2S(=O)(=O)C(C)C)n1 [NVP-TAE684] (first compound 0.08 µM, partner dose 0.4 µM)",82.1,98.5,81.6,81.5,92.5,74.1,89.4,60,70.4,92.8,67,67.9,123,60.7,79.5,72.6,76.4,81.2,–,86.6
"Cn1nnc2c(C(N)=O)ncn2c1=O [temozolomide] + O=C1NC(=O)/C(=C/c2ccc(-c3ccc(F)cc3O)o2)S1 [AS252424] (first compound 10 µM, partner dose 5 µM)",90.3,78,76.2,94.7,86.3,86.6,63.8,93.5,89.8,87.7,35.1,92.7,73.2,87.5,107,63.6,83.4,51.3,87.9,82.6
"Cn1nnc2c(C(N)=O)ncn2c1=O [temozolomide] + O=S(=O)(c1ccccc1)N(CC(F)(F)F)c1ccc(C(O)(C(F)(F)F)C(F)(F)F)cc1 [T0901317] (first compound 10 µM, partner dose 7 µM)",81.7,59.6,83.9,91.4,118,97.5,67,86.3,89.7,99.8,36.3,101,63.1,64,90.9,62.3,98.8,61.5,81,85.5
"O=C(O)c1ccc2c(c1)nc(Nc1cccc(Cl)c1)c1ccncc12 + O=S(=O)(c1ccccc1)N(CC(F)(F)F)c1ccc(C(O)(C(F)(F)F)C(F)(F)F)cc1 [T0901317] (first compound 2 µM, partner dose 7 µM)",48.4,80.8,76.3,109,75.9,61.8,72.8,61.7,50.2,95,53.2,67.3,66.6,48.1,79.4,75.5,81.2,85.9,–,56.5
"O=C(O)c1ccc2c(c1)nc(Nc1cccc(Cl)c1)c1ccncc12 + Oc1nc(-c2ccc(C(F)(F)F)cc2)nc2c1CSCC2 [XAV939] (first compound 2 µM, partner dose 10 µM)",69.6,75.3,91.6,102,92.9,63.6,70.4,85.9,70.3,75.1,85.2,83.9,76.1,67.4,88.7,82.7,99.6,69.1,–,83
"O=C(Nc1cc(C(F)(F)F)cc(C(F)(F)F)c1)c1cc(Cl)ccc1O + CCN(CC)CCCCNc1ncc2cc(-c3cc(OC)cc(OC)c3)c(NC(=O)NC(C)(C)C)nc2n1 [PD173074] (first compound 0.08 µM, partner dose 0.5 µM)",87.2,98.7,103,110,109,94.2,98.7,104,109,110,119,102,127,80.5,100,83.3,122,104,–,103
